Measurements published in PubChem BioAssay AID588453 (National Center for Advancing Translational Sciences (NCATS), 2011).
Screen size: about 390,000 compounds; about 4,000 (1%) were called active. The shares of active, inactive and inconclusive entries below differ from those in the screen. Calls follow the shape of the dose curve; as a rule, active = well fitted inhibition curve with a large enough effect; inconclusive = small, poorly fitted or top-dose-only effect; inactive = no such curve, though single readings can be large or run the other way. A potency beside an inconclusive call is a rough fit, not a confirmed value.

These compounds were tested against Thioredoxin reductase 1, cytoplasmic (Rattus norvegicus) (UniProt O89049) (assay: qHTS Assay for Inhibitors of Mammalian Selenoprotein Thioredoxin Reductase 1 (TrxR1): qHTS). Settings: recombinant rTrxR1, NADPH fluorescence consumption, selenite substrate; series mostly up to 114 µM; activity change, negative = inhibition: at the top concentration.
Chain of UniProt O89049 (O89049 whole entry, looked up): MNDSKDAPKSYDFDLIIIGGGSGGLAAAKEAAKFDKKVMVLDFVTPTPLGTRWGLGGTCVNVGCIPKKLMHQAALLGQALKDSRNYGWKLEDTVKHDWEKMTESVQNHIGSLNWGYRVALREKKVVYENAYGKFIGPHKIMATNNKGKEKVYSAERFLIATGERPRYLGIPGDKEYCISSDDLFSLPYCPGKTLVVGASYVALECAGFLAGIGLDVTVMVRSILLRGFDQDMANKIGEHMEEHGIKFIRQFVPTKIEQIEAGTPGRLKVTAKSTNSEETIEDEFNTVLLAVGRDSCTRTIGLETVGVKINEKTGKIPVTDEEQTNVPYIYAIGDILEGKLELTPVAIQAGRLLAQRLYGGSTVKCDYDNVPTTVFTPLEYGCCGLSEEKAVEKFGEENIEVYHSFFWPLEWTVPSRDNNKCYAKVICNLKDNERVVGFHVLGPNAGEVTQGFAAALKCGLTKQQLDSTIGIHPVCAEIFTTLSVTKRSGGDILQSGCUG
Method in brief: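 Rat TrxR1 (90 nM in the dispensed reagent) was pre-reduced with 400 uM NADPH for 5 min at room temperature, then incubated with compound for 15 min. After 400 uM selenite was added, NADPH fluorescence (Ex 340/Em 450 nm) was followed for 8 min.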
% is scaled to controls: 0 for no effect and ±100 for the full control effect; potency is read from the fitted curve at half-maximal effect; tags tell the direction and shape of the fitted curve.
Also: nearly all actives have a fitted effect of over 65% in size.

Row | Structure (SMILES) | activity change, negative = inhibition | Potency
1 | Cc1nn(-c2ccccc2)c(N)c1C(c1ccccc1)c1c(C)nn(-c2ccccc2)c1N | inactive: -44.3% [at 57.1 µM] | –
2 | NC(=O)c1ccc(SCC(=O)OCC(=O)NCc2ccco2)c([N+](=O)[O-])c1 | – | inconclusive: 35.5 µM [inhibitor, partial curve, poor fit]
3 | CCOP(=O)(OCC)C(C#N)=C1SCN(c2ccccc2)CS1 | – | inconclusive: 70.8 µM [inhibitor, single point]
4 | Clc1ccc(-c2nc3nc4ccccc4nc3n2Cc2ccco2)cc1 | – | inconclusive: 44.7 µM [inhibitor, partial curve]
5 | CCC[C@@H](CN1CCC[C@H]1CN1C(N)=NC[C@@H]1Cc1ccccc1)N1C[C@@H]([C@H](C)CC)N(CCCC2CCCC2)C1=N | – | inconclusive: 25.1 µM [inhibitor, full curve]
6 | N=c1oc2cc(O)ccc2cc1C(=O)Nc1nc2ccccc2s1 | – | inconclusive: 63.1 µM [inhibitor, single point]
7 | CCOC(=O)c1cnc(SSc2ncc(C(=O)OCC)c(N)n2)nc1N | – | inconclusive: 89.1 µM [inhibitor, partial curve, poor fit]
8 | CC(=O)Nc1ccc2c(c1)Cc1cc(N3C(=O)C=CC3=O)ccc1-2 | – | inconclusive: 0.794 µM [inhibitor, partial curve, poor fit]
9 | CC1=C(C(=O)OCc2ccccc2)C(c2ccc3ccccc3c2)NC(=O)N1CCCCCC(=O)O (stereo not drawn) | inactive: -12.4% [at 57.1 µM] | –
10 | C=CC(=O)Nc1cccc(N(C)c2ccnc(Nc3ccc(N4CCN(C)CC4)cc3)n2)c1 | – | inconclusive: 14.1 µM [inhibitor, full curve]
11 | COc1ccc(C(=O)NCS(=O)(=O)c2ccc(C)cc2)cc1 | – | active: 28.2 µM
12 | Cc1ccc(Cl)cc1NC(=O)CSc1nc2ccccc2c2nc(-c3ccccc3)nn12 | inactive: 7.76% [at 57.1 µM] | –
13 | O=C1ON=C(c2ccccc2)/C1=C/c1ccc(O)c(O)c1 | – | inconclusive: 10 µM [inhibitor, partial curve, poor fit]
14 | Cc1cc(O)c(C(=O)/C=C/c2ccccc2O)c(=O)o1 | – | inconclusive: 50.1 µM [inhibitor, partial curve]
15 | O=C(CNC(=O)c1ccco1)N/N=C/c1ccc(O)cc1O | inactive: -9.25% | –
16 | N#Cc1c(-c2ccc(C(F)(F)F)cc2)cc(-c2ccccc2)[nH]c1=S | – | inconclusive: 50.1 µM [inhibitor, partial curve]
17 | CN1CCCc2cc(C#N)c(=O)[nH]c21 | – | inconclusive: 70.8 µM [inhibitor, single point]
18 | Cc1ccc(CN(C)C(=O)C2CCC(=O)N(CC3CCCCC3)C2)o1 (stereo not drawn) | – | active: 39.8 µM
